Reference: article PMC4336329 (PLoS ONE, 2015)
Hit rate of the full screen: of about 310,000 compounds, about 14,000 (4.5%) showed an effect of 50% or more. The effect is printed as a negative number. The list shows a part of the results.

Biological target: human ether-à-go-go-related gene (hERG) potassium channel (human, UniProt Q12809)
Assay: primary screen, population patch clamp on CHO cells stably expressing hERG
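Note: peak tail current of the secondary pulse compared with the same well before compound.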

Sequence of human ether-à-go-go-related gene (hERG) potassium channel (Q12809 whole entry, looked up): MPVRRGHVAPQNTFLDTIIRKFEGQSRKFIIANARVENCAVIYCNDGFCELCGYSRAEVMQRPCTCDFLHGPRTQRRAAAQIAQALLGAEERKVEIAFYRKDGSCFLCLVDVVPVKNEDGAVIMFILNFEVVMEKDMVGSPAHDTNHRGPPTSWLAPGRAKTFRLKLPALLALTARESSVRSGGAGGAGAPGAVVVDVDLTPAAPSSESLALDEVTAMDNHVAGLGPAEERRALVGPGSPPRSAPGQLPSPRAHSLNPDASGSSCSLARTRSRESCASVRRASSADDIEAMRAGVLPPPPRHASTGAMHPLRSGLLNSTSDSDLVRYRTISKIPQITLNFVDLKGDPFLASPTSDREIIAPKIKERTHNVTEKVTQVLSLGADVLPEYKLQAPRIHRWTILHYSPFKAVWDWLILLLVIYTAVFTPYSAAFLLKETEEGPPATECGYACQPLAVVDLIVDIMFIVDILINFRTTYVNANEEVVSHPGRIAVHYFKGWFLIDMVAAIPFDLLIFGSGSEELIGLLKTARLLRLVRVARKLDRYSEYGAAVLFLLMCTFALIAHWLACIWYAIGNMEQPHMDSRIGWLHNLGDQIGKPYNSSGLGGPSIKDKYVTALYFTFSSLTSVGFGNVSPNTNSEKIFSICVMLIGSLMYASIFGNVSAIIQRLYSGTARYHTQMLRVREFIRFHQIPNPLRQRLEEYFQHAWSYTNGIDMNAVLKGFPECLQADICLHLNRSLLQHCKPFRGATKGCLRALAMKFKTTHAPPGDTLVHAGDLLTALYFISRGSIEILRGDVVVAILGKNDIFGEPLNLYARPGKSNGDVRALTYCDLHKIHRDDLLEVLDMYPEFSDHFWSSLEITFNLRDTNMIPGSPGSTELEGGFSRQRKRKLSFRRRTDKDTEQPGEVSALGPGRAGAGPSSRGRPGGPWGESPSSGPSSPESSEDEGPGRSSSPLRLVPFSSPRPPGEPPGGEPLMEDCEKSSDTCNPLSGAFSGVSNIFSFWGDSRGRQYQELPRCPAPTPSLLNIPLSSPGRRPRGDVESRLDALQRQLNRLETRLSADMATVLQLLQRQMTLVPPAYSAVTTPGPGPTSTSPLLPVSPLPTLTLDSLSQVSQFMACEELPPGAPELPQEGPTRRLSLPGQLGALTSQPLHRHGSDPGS

SMILES | hERG current change (%, negative = inhibition) at 10uM [%]
COC(=O)C(Cc1ccc(OC(=O)c2ccc(C)cc2)cc1)N1Cc2ccccc2C1=O (centres unmarked) | -9.91
Nc1ncn(C(=O)c2ccco2)n1 | 14.5
O=C(CCNC(=O)c1ccc(Br)cc1)NCc1ccncc1 | -13.8
Cc1noc(C(=O)Nc2cccnc2)c1Cl | 20.2
O=C(Cc1noc2ccccc12)Nc1ccc(Cl)cc1 | -10.8
CCc1ccc(NC(=O)Cn2cnc3sc(C)c(S(=O)(=O)N4CCOCC4)c3c2=O)cc1 | -21.5
CCC(C)(C)C1CCC(=NNC(=S)Nc2ccccc2)CC1 (centres unmarked) | 11.4
Cc1ccc(NC(=O)c2oc3ccccc3c2C)c([N+](=O)[O-])c1 | 12.9
CC1CCCC(NC(=O)c2cccs2)C1C (centres unmarked) | 11.1
O=C(NCCO)C(=O)NCC1OCCCN1S(=O)(=O)c1cccs1 (centres unmarked) | -26.7
COc1ccccc1CNC(=O)Cc1ccc(OC)c(OC)c1 | 13
O=C(COC(=O)c1ccccc1C(=O)c1ccc(Cl)cc1)NC(c1ccccc1)c1ccccc1 | 24.1
O=C(CNC(=S)N(Cc1ccc(F)cc1)C1CCCCC1)NC1CC1 | -37.2
Cc1nn(CC(=O)NCCc2ccccc2)c(C)c1[N+](=O)[O-] | -0.47
CCNC(=S)N/N=C(\C)c1cccc([N+](=O)[O-])c1 | -45.9
CCCSc1nc2cc(OC)c(OC)cc2c(=N)n1CCCN1CCOCC1 | -74.6
O=C(COC(=O)C(Cc1ccccc1)NC(=O)c1cccs1)NCc1ccccc1 (centres unmarked) | -2.93
COc1ccc(CNC(=O)Nc2ccccc2)cc1 | -18.9
N#C/C(=C\c1c[nH]c2ccccc12)C(N)=O | 10.4
Nc1ccccc1SC/C=C/CSc1ccccc1N | 10.8
CCCn1c(O)c(N=NC(=O)CNC(=O)c2cccnc2)c2ccccc21 | -13.9
COCCN(CC1CCCN(C2Cc3ccccc3C2)C1)C(=O)CCC(C)=O (centres unmarked) | -6.4
O=C(Nc1scc(-c2ccccc2)c1C(=O)O)c1ccccc1Cl | 1.18

SMILES | hERG current change (%, negative = inhibition) at 10uM [%]
Cc1nnc(SCC(=O)N2c3ccccc3Sc3ccccc32)n1N | 7.29
Cc1cccc(OCc2nc(C#N)c(NCCN(C)C)o2)c1 | -32.8
CCC(CC)C(=O)N(c1ccc(F)cc1)C1C=CS(=O)(=O)C1 (centres unmarked) | -3.34
O=C(OCc1ccc([N+](=O)[O-])cc1Cl)c1cnccn1 | 13.7
Cc1cccc(-c2nc(C#N)c(NC3CCCCC3)o2)c1 | 3.76
O=C(Nc1nccs1)c1ccc(COc2c(F)c(F)cc(F)c2F)o1 | 1.26
CCCCc1cc(=O)oc2c(C)c(OCC(=O)N3CCC(C(N)=O)CC3)ccc12 | -16.7
CC1CN(S(=O)(=O)c2cccc(C(=O)N(C)C3CCN(C)CC3)c2)CC(C)O1.Cl (centres unmarked) | -3.74
O=C(CCc1ccccc1)NCC(=O)N/N=C/c1ccc(O)cc1O | -8.41
COc1ccc(CNC(=O)CSc2nnc(Cn3nnc4ccccc43)n2C)cc1 | 3.8
COc1cccc(CC(=O)Nc2nc(-c3cc(OC)ccc3OC)cs2)c1 | 4.24
CCOC(=O)C1CCCN(C(=O)C2CCN(C(=O)Nc3ccccc3)CC2)C1 (centres unmarked) | 7.92
COc1cccc2cc(C(=O)OCc3ccccc3)c(=O)oc12 | 6.63
CC(=O)N1CCOCCOCCN(C(C)=O)CCOCCOCC1 | 31.6
C=CCSc1nc2sc3c(c2c(=O)n1CC)CCc1ccccc1-3 | 15.3
CC(C)(C)c1cn(-c2ccc(Cl)cc2)c(=S)[nH]1 | 4.22
CCOC(=O)/C(C#N)=C/NC(=O)NC(C)(C)C | 4.11
CCC(C)Cn1c(S(=O)(=O)O)nc2ccccc21 (centres unmarked) | 13
O=C1Nc2ccc([N+](=O)[O-])cc2OC1CCN1CCN(c2ccccc2)CC1 (centres unmarked) | -47.4
CCCCC(=O)Nc1ccc(C(=O)N2CCC(C(=O)OCC)CC2)cc1 | 3.61
CC(=O)c1ccc(NC(=O)CCc2ccc(C)o2)cc1 | -0.137
O=C1c2cccnc2C(=O)N1Cc1ccc(F)cc1 | -7.08
CC(=NCCN1CCCCC1)c1c(O)n(-c2ccccc2)c(=O)[nH]c1=O | 10.9

SMILES | hERG current change (%, negative = inhibition) at 10uM [%]
Cc1cccc(C)c1N1CCN(C(=O)Nc2ccc3c(c2)OCCO3)CC1 | -7.07
CC1=CC(C)(C)N(C(=O)CCl)c2ccccc21 | -39.7
O=C(NC(=S)N1CCCC(C(F)(F)F)C1)c1ccc(F)cc1 (centres unmarked) | 10.7
COc1ccc(-c2cc(C(F)(F)F)nc(NCc3ccco3)n2)cc1OC | 14.4
CN(C)S(=O)(=O)c1ccc(N2CCCC2)c(C(=O)OCC(=O)NC2(C#N)CCCCC2)c1 | 4.54
CCCNC(=O)C1CCN(c2nc(C)cc(C)n2)CC1 | 0.749
Cc1cc[n+](CCc2ccccc2)cc1C.[Br-] | 18.3
CCOc1ccccc1NC(=O)Nc1ccon1 | 6.44
Cn1c(N)c(C(=O)COC(=O)c2ccc(Br)o2)c(=O)n(C)c1=O | -15.4
CCC(=O)N(NC1=NS(=O)(=O)c2ccccc21)S(=O)(=O)c1ccc(C)cc1 | 15.5
CC(C)CCN1CCNC(=O)C1CC(=O)NCCCN1CCOCC1 (centres unmarked) | 10.4
N/C(=N\OC(=O)COc1ccc(Cl)cc1)c1cccnc1 | 2.03
CSc1nsc(/C=C/Nc2ccc(C(=O)O)cc2)c1C#N | 4.76
COc1cc2c(c(OC)c1)C(c1ccncc1)CC(=O)N2 (centres unmarked) | 9.02
COc1ccc(CNC(=O)CNC(C)c2ccc(F)cc2)cc1.O=C(O)C(=O)O (centres unmarked) | 5.06
CN(C)c1ccc(CN(C(=O)/C=C/c2ccccc2Cl)C2CCS(=O)(=O)C2)cc1 (centres unmarked) | -5.17
Cc1cccc(-n2c(Cc3cc(=O)[nH]c(=O)[nH]3)nnc2SC(C)C)c1 | 16.6
CCC1(CC)C(=O)N(Cc2ccccc2)C(=O)N(Cc2ccccc2)C1=O | 0.244
O=C(Cc1ccccc1)NNC1CC(=O)N(c2ccc(Oc3ccccc3)cc2)C1=O (centres unmarked) | 6.28
CCn1c2ccccc2c2cc(NC(=O)C3CCN(S(=O)(=O)c4cccs4)CC3)ccc21 | 3.39
C=CC(C)(C)c1cc2cc3ccoc3cc2oc1=O | 0.459
CN(C)S(=O)(=O)c1cccc(C(=O)OCC(=O)NCc2ccc3c(c2)OCO3)c1 | -8.53
C=CC(=O)N1c2ccccc2Sc2ccc(NC(=O)OCC)cc21 | 0.408

SMILES | hERG current change (%, negative = inhibition) at 10uM [%]
CCC(CC)C(=O)Nc1cc(Cl)ccc1C | 2.41
COc1ccc(CN(C)C(=O)c2ccc3c(=O)n4c(nc3c2)CCC4)cc1 | 13.7
CCc1ccc(/C=N/NC(=O)c2nnn(-c3nonc3N)c2CN2CCOCC2)cc1 | -11.6
CC1(C)c2[nH]c3ccccc3c2C[C@H]2C(=O)N(Cc3ccccc3F)C(=O)N21 | 15.7
COc1ccc(NC(=O)CN2CCOCC2)cc1.O=C(O)C(=O)O | 13
O=C(O)CS(=O)(=O)CC(=O)NCc1cccc(C(F)(F)F)c1 | -2.59
CCCCCOc1ccc(N2C(=O)C(C)CNC2=S)cc1 (centres unmarked) | 5.61
Cc1cc(C)cc(N(CC(=O)NCc2ccco2)S(=O)(=O)c2c(C)noc2C)c1 | -26.3
CSc1nc2ncnc(N)c2[nH]1 | 7.32
Cl.OC(CN1C2=NCCCN2c2ccccc21)c1ccc(Cl)cc1 (centres unmarked) | -75.9
Cc1ccc(C)c(OCc2cc(C(=O)N3CCN(C(=O)c4ccco4)CC3)no2)c1 | -10.7
O=C(NCc1ccccc1C(F)(F)F)C1CC(c2ccccc2[N+](=O)[O-])=NO1 (centres unmarked) | -29.2
COc1ccc(Cl)cc1C(=O)O/N=C(\N)c1ccncc1 | -7.86
C=CCNC(=O)c1cc(Cl)ccc1[N+](=O)[O-] | 10.3
Cc1cccc(NC(=O)Cn2c(=O)n(Cc3ccccc3)c(=O)c3c(C)c(C)sc32)c1 | -8.78
COCCN(Cc1cn[nH]c1-c1ccc2cc(OC)ccc2c1)C(C)C | -39
COc1ccc(S(=O)(=O)NC(CC(=O)NCc2ccc3c(c2)OCO3)c2ccco2)cc1 (centres unmarked) | 5.74
CCc1sc(C(=O)NCCCn2ccnc2)cc1Br | -14.5
CC(=O)c1ccc(NC(=O)CCNS(=O)(=O)c2cccc3nonc23)cc1 | 19.8
O=C(NCc1ccncc1)c1ccc(Oc2ccccc2)cc1 | -15.9
Cc1cccc(N(Cc2cc3cc(C)ccc3[nH]c2=O)C(=O)c2cccs2)c1 | 5.95
Cc1cc2cccc(C)c2nc1SCC(=O)NNC(=O)c1ccco1 | 3.66
C#CCOC(=O)c1ccccc1C(=O)O | 7.07
